From publication PMC12136788 come the findings set out here.

T1: UNK ZnF1-3 (human, UniProt Q9C0B0 31-174)
T1 sequence: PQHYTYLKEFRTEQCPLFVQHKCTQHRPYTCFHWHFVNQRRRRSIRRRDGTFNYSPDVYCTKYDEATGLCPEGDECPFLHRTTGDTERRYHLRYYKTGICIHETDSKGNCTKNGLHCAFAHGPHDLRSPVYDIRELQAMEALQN

B1: chr12:1019172:1019173:+_ENSG00000060237_ENST00000535572|hu_hu|FALSE|FALSE (ssRNA)
RNA: GGGAGUUCUACAGUCCGACGAUCUAUAUGACAGUCACUGGCCAGGCAUCACGUUUGUUUCCUCAUUCUUUAGUCUUUGUCUUUCACCCAGCACACACCAUUCUUUUAAGUUGUCCAAUUUUGUUACAACACCCCCUCCUCACUCAACAGAGGAUUGAGCAUCA
B2: chr17:64801638:64801639:+_ENSG00000154229_ENST00000413366|hu_mus|hu_hu_hu_mus_False|1_18 (ssRNA)
RNA: GGGAGUUCUACAGUCCGACGAUCUAUAUAUAUAUAUACAUAUGUACACAUAUAUAGUAAAACCCUAGUUAAACGUGUAAAGUAGCCAUUCAUUUUUAAAAUUACAUCUACAUUAAAAAAGUAAUCUAUCUGAUAGAGUGCCCACAACAGAGGAUUGAGCAUCA
B3: 46579208_46579328_5643_3pUTR_ENSG00000111371_ENST00000398637|human|control|control (ssRNA)
RNA: GGGAGUUCUACAGUCCGACGAUCUUCUCAACAGGGUCUGUAACUGUAAAAAAGGAAAGUGGGUGGAGAGGUUUUUUUUUCCCCCUUUUUUCUUGUUUUCUAACCUCCCAGCUUAUUCCUGGAGAGUUAAAACACAGUUACUAGCAACAGAGGAUUGAGCAUCA
B4: chr2:216981417:216981418:+_ENSG00000079246_ENST00000392132|hu_hu|hu_hu_hu_mus_True|8_18 (ssRNA)
RNA: GGGAGUUCUACAGUCCGACGAUCCUGAUACUGGUCCUUGCCAGCAAGGGCAUUAUCAGUGCCAUCUGUGCCAUAGAGGACUAACGCAAUCUCAUCUUUGCUCUCCGAAAAUACCUGUCGCUGUACAAACAUGGUUAUCACUUUCAACAGAGGAUUGAGCAUCA
B5: chr6:38652254:38652255:-_ENSG00000124767_ENST00000373365|hu_hu|hu_hu_hu_mus_False|58_68 (ssRNA)
RNA: GGGAGUUCUACAGUCCGACGAUCCGAGAACUUCAUAGCAGGGAAGUCAAGCUUCUGCAGGAGGGUCAUUCCAAGAACUCUAGUAUAAAAAUCCAGGGACUUCUUAGGAUCCUUAAUUCUUAGCAUCGUUUGCUGCAGUAGAAACAACAGAGGAUUGAGCAUCA
B6: chr6:83880054:83880055:+_ENSMUSG00000030016_ENSMUST00000032088|mus_mus|FALSE|FALSE (ssRNA)
RNA: GGGAGUUCUACAGUCCGACGAUCUAUUCUUGGAGAUGCUGCAUAAUAAUCAUUCAUCAUAGAAGGGGUUGGCAGUCUCUUCAUUUUCUGGGCACCAGCUUGUGUAAACUUUGGUAGCCACGAAGCUUUCACAAUCCCAAAGGGCAACAGAGGAUUGAGCAUCA
B7: chr17:60770872:60770873:+_ENSG00000011028_ENST00000303375|hu_hu|hu_hu_hu_mus_True|28_48 (ssRNA)
RNA: GGGAGUUCUACAGUCCGACGAUCUCUUUAAAAAAAAAAAAAAAAAGACAAACAAUAAUAGCACAUUUCGAGAAUCAAGAACUACAAAGAAAGGGCCGCUUUGAGUUGUCCAUGUUCUCGUCCUGCACUGGGACACGGGGACUGCAACAGAGGAUUGAGCAUCA
B8: chrX:101156880:101156881:-_ENSMUSG00000056537_ENSMUST00000070705|mus_hu|motif|central (ssRNA)
RNA: GGGAGUUCUACAGUCCGACGAUCAGGAAAACUUUAAAUUCUUCAGUUUUCUUUACUCCUCCCAUAUUUCACUUCCUGCCGGAAUCCAAGUUAAAUUAUACAAUUUCCACUGGUCUUCAACACGGUUUAAUUCUGCACUGUCCUCAACAGAGGAUUGAGCAUCA
B9: chr9:50470998:50470999:-_ENSMUSG00000032064_ENSMUST00000117646|mus_mus|FALSE|FALSE (ssRNA)
RNA: GGGAGUUCUACAGUCCGACGAUCUAGGCAGUUAAAACAGGUUAUUACAUUGAUCAUCGGAAACUUCUGGCAUAACAGUCUAUGAAAACAUUGUAAAACAGAAUACAUGGUAAGAAUCUCUGAAAGCAGUGGUCACAAACACCCCAACAGAGGAUUGAGCAUCA
B10: chr16:45382771:45382772:-_ENSMUSG00000022661_ENSMUST00000163230|mus_mus|mus_mus_mus_hu_True|78_98 (ssRNA)
RNA: GGGAGUUCUACAGUCCGACGAUCCUGGGUCAUGUUAUGGGCCCAAUGGACAGGGAGAGCAUGCUUUUCAAAAAAUGUGAGCUAUUGUCUAAGACUAACAAUAUUUAUCUAGCUAUAAAAAUAAGUUAAAUGAAUAAGUUAAGACAACAGAGGAUUGAGCAUCA
B11: chr1:88243738:88243739:-_ENSMUSG00000026234_ENSMUST00000027438|mus_mus|FALSE|FALSE (ssRNA)
RNA: GGGAGUUCUACAGUCCGACGAUCCAUGAGUUCAAUCCCCAGUAAUCACAUGGUGGCUCUCAAUAAUCUGUAAUGGGAUUCUAUGCCCUCUUCUGGUGUGUCUGAAGACAGCUACAGUGUACUCAUAUACAUAAAAUAAAAAUCCAACAGAGGAUUGAGCAUCA
B12: 132373464_132384851_235_CDS_ENSG00000081307_ENST00000264991|human|control|control (ssRNA)
RNA: GGGAGUUCUACAGUCCGACGAUCUGCUACGGCAAAGGUACGGAUUUUCUCAUAGUCGCUUACAAUUCCCAUUCGUUUCAAUGCCAUCAAGCGGCUGGUGGUGGGUAGCUGCUCUUUUCCCAGAGGGCUUACCACAGCCAAAGGCAACAGAGGAUUGAGCAUCA
B13: chr12:125396312:125396313:-_ENSG00000150991_ENST00000546120|hu_mus|FALSE|FALSE (ssRNA)
RNA: GGGAGUUCUACAGUCCGACGAUCGAUCUGCAUGCCACCUCUGAGGCGAAGGACCAGGUGCAGGGUGGACUCUUUCUGGAUGUUGUAGUCUGACAGGGUGCGGCCAUCUUCCAGCUGCUUGCCUGCAAAGAUCAGCCUCUGCUGCAACAGAGGAUUGAGCAUCA
B14: 123718901_123719873_1099_CDS_ENSG00000107672_ENST00000369023|human|control|control (ssRNA)
RNA: GGGAGUUCUACAGUCCGACGAUCAAUCUCAAAGGUCUUCACAAUCUCCUCCCAGUCACGGUAACUCAAAGCUAUAAUUCCUUGAUUUCUAACUUGUGUGUUAUGUUCAAAUCCCUCAUUUUCUUCAUUAAUACUAACAGGCUCCAACAGAGGAUUGAGCAUCA

Some of the results follow.

The target of this assay is T1, UNK ZnF1-3. Nature of the assay: nsRBNS (natural sequence RNA bind-n-seq); RBNS binding buffer (assumed for nsRBNS): 25 mM Tris pH 7.5, 150 mM KCl, 3 mM MgCl2, 0.01% Triton X-100, 500 ug/ml BSA, 20 U/ml SUPERase-In, 4 C; UNK is unkempt and MSI1 is Musashi-1; names of the RNAs are library labels; protein concentration not given here; high values mean tight binding.
Molecule B1 came in with a binding signal of 0.861 enrichment R.

Take B2: the binding signal is 1.15 enrichment R.

The molecule B3 had a binding signal of 1.04 enrichment R.

With B4, the binding signal was determined as 0.769 enrichment R.

On to B5, for which the binding signal was 1.09 enrichment R.

In the case of B6, the binding signal amounted to 0.833 enrichment R.

Regarding B7, the binding signal turned out to be 2.6 enrichment R.

In the case of B8, the binding signal stood at 0.725 enrichment R.

In the case of B9, the binding signal is 1.25 enrichment R.

The molecule B10 displayed a binding signal of 1.44 enrichment R.

Turning to B11, the binding signal was found to be 1.74 enrichment R.

As for B12, the binding signal was determined as 0.652 enrichment R.

Regarding B13, the binding signal turned out to be 1.01 enrichment R.

B14 returned a binding signal of 1.02 enrichment R.
